# Out of some 39,000 compounds screened, about 220 (0.56%) showed activity. Some of the results follow.
# System: Escherichia coli K-12 BW25113
# Assay: relative growth (OD600 normalised to plate interquartile mean) (fraction); higher = less growth inhibition, active = 0.2 or less
# Settings: 50 µM; LB; incubation time: overnight (16-24 h)
# 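Also: static incubation at 37 °C against the wild-type strain, values averaged over two biological replicates.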
row,SMILES,relative growth
1,N#Cc1cc(F)c(N)c2[nH]cc(S(=O)(=O)c3ccc(NC(=O)c4cc(S(N)(=O)=O)cs4)cn3)c12,inactive: 0.974
2,COc1cccc(CNC(=O)c2cc3c(c(-c4cccc(-c5cccc(C#N)c5)c4)n2)[C@@H](CCO)N([S@](=O)C(C)(C)C)C3)c1,inactive: 1
3,C[C@@H]1CN([C@H](C)CO)C(=O)c2cc(NC(=O)C3CCCCC3)ccc2O[C@@H](C)CCCCO[C@H]1CN(C)S(=O)(=O)c1ccc(Cl)cc1,inactive: 1.03
4,C[C@H]1CCCCO[C@H](CN(C)C(=O)Nc2ccc(F)cc2)[C@@H](C)CN([C@@H](C)CO)C(=O)c2cc(NS(=O)(=O)c3ccccc3)ccc2O1,inactive: 1.01
5,C[C@@H]1CCCCO[C@@H](CN(C)S(=O)(=O)c2ccccc2)[C@@H](C)CN([C@@H](C)CO)C(=O)c2cc(NC(=O)C3CCCCC3)ccc2O1,inactive: 1.02
6,C[C@H]1CN([C@@H](C)CO)C(=O)c2c(c3ccccc3n2C)-c2ccccc2CO[C@@H]1CN(C)S(=O)(=O)c1cn(C)cn1,inactive: 1.01
7,NC(=O)CC[C@@H](N)C(=O)O,inactive: 1.02
8,C[C@H]1CCCCO[C@@H](CN(C)S(=O)(=O)c2ccccc2)[C@@H](C)CN([C@@H](C)CO)C(=O)c2cc(NS(C)(=O)=O)ccc2O1,inactive: 1.01
9,Cc1ccc(S(=O)(=O)Nc2ccc3c(c2)C(=O)N([C@H](C)CO)C[C@H](C)[C@H](CN(C)C(=O)NC2CCCCC2)OCCCC[C@H](C)O3)cc1,inactive: 0.989
10,C[C@@H]1CCCCO[C@@H](CN(C)S(=O)(=O)c2ccc(Cl)cc2)[C@@H](C)CN([C@H](C)CO)C(=O)c2cc(NC(=O)c3ccncc3)ccc2O1,inactive: 1.01
11,COc1ccc(S(=O)(=O)Nc2ccc3c(c2)CC(=O)N([C@H](C)CO)C[C@H](C)[C@@H](CN(C)S(=O)(=O)c2cccs2)O3)cc1,inactive: 1.01
12,C[C@H]1CCCCO[C@@H](CN(C)Cc2ccc(C(F)(F)F)cc2)[C@@H](C)CN([C@@H](C)CO)C(=O)c2cc(NC(=O)c3ccncc3)ccc2O1,inactive: 0.998
13,CNC(=O)C(=O)Nc1ccc(N2CCCS2(=O)=O)cc1,inactive: 0.961
14,Cc1ccc(S(=O)(=O)N(C)C[C@H]2OCCCC[C@H](C)Oc3ccc(NC(=O)Nc4c(C)noc4C)cc3C(=O)N([C@H](C)CO)C[C@@H]2C)cc1,inactive: 0.996
15,CN(C)CCCNC(=O)C[C@@H]1CC[C@H](NS(=O)(=O)c2ccccc2)[C@@H](CO)O1,inactive: 1
16,C[C@H](CO)N1C[C@H](C)[C@@H](CN(C)Cc2ccc(-c3ccccc3)cc2)Oc2c(NC(=O)c3ccc(-c4nccs4)cc3)cccc2C1=O,inactive: 1.03
17,Cc1noc(C)c1S(=O)(=O)Nc1cccc2c1O[C@H](CN(C)S(=O)(=O)c1ccccc1)[C@H](C)CN([C@H](C)CO)C2=O,inactive: 1.04
18,C[C@H](CO)N1C[C@H](C)[C@H](CN(C)Cc2ccc(F)cc2)Oc2cc(C#CC3CC3)ccc2S1(=O)=O,inactive: 1.01
19,C[C@@H]1CN([C@H](C)CO)C(=O)c2cc(NC(=O)c3ccccc3)ccc2O[C@@H](C)CCCCO[C@H]1CN(C)C(=O)c1ccccc1,inactive: 0.997

row,SMILES,relative growth
1,COc1ccc(N2CCCS2(=O)=O)cc1N,inactive: 0.99
2,Cc1noc(C)c1NC(=O)Nc1ccc2c(c1)C(=O)N([C@@H](C)CO)C[C@@H](C)[C@@H](CN(C)Cc1ccc(Cl)c(Cl)c1)OCCCC[C@@H](C)O2,inactive: 1.03
3,Cc1ccc(S(=O)(=O)Nc2ccc3c(c2)CC(=O)N([C@H](C)CO)C[C@H](C)[C@H](CN(C)Cc2ccc(Oc4ccccc4)cc2)O3)cc1,inactive: 0.968
4,CN1C(=O)c2cc(NS(=O)(=O)c3ccc(F)cc3)ccc2OC[C@H]2O[C@@H](CC(=O)Nc3cccc4ccccc34)CC[C@@H]21,inactive: 1.02
5,C[C@H](CO)N1C[C@H](C)[C@@H](CN(C)C(=O)Nc2ccc3c(c2)OCO3)Oc2c(NC(=O)Nc3cccc4ccccc34)cccc2C1=O,inactive: 1.01
6,C[C@@H]1CCCCO[C@@H](CN(C)Cc2ccncc2)[C@H](C)CN([C@H](C)CO)C(=O)c2cc(NC(=O)Nc3ccc(F)cc3)ccc2O1,inactive: 1.01
7,CS(=O)(=O)CCNCc1nc(-c2ccc3ncnc(Nc4ccc(OCc5cccc(F)c5)c(Cl)c4)c3c2)cs1,inactive: 1.01
8,COC(=O)C1=C[C@@H](O)[C@@H](O)[C@H](O[C@@H]2O[C@H](COC(=O)/C=C/c3ccccc3)[C@@H](O)[C@H](O)[C@H]2O)C1,inactive: 0.984
9,Cc1ccc(S(=O)(=O)N(C)C[C@@H]2OCCCC[C@@H](C)Oc3ccc(NC(=O)Nc4ccccc4)cc3C(=O)N([C@H](C)CO)C[C@H]2C)cc1,inactive: 1.02
10,O=C(C[C@H]1C=C[C@@H](NC(=O)c2cccnc2)[C@@H](CO)O1)NCc1ccncn1,inactive: 1.04
11,C[C@H]1CCc2c(C(=O)O)csc2C1,inactive: 1.01
12,COc1ccc(S(=O)(=O)N(C)C[C@@H]2OCCCC[C@@H](C)Oc3ccc(NS(C)(=O)=O)cc3C(=O)N([C@@H](C)CO)C[C@H]2C)cc1,inactive: 1.01
13,COc1ccc2c(c1)OC1c3ccc(OC)cc3OCC21 (stereo not drawn),inactive: 0.893
14,COc1ccc(CNC(=O)C[C@@H]2C[C@@H]3c4cc(NC(=O)NC5CCCC5)ccc4O[C@@H]3[C@@H](CO)O2)cc1,inactive: 1
15,CNc1cc(=O)n(C)c(=O)n1C,inactive: 1.02
16,NC1=N[C@H]2CS(=O)(=O)C[C@@H]2S1,inactive: 0.995
17,C[C@@H]1CN([C@@H](C)CO)C(=O)c2cccc(NC(=O)C3CCOCC3)c2O[C@@H]1CN(C)Cc1ccc(Oc2ccccc2)cc1,inactive: 1.01
18,COCC#Cc1ccc2c(c1)O[C@H](CN(C)C(=O)CN(C)C)[C@H](C)CN([C@H](C)CO)S2(=O)=O,inactive: 0.994
19,Cc1ccc(S(=O)(=O)Nc2ccc3c(c2)C(=O)N([C@H](C)CO)C[C@H](C)[C@H](CN(C)S(=O)(=O)c2ccc(F)cc2)OCCCC[C@H](C)O3)cc1,inactive: 0.899
